# PubChem BioAssay AID686971 (National Center for Advancing Translational Sciences (NCATS), 2013)
# Out of some 360,000 compounds screened, about 7,500 (2.1%) were called active. Inconclusive results, whose numbers are uncertain, are shown with a selection of clear calls. Calls come from the whole dose curve; as a rule, active = well fitted cell-killing curve with a large enough effect; inconclusive = small, poorly fitted or top-dose-only effect, or effect the other way, or another doubt; inactive = no such curve, though single readings can be large or run the other way. Potencies of inconclusive entries are left out as doubtful fits.
# Assay: qHTS for induction of synthetic lethality in tumor cells producing 2HG: qHTS for the HT-1080-IDH1KD cell line;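 for activity, negative = toxicity: 0% = DMSO wells and -100% = cell-free medium wells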
# Conditions: HT-1080 IDH1 knockdown viability, ATP luminescence, 48 h; activity, negative = toxicity: at 46.1 µM (top of the series) unless noted
# In short: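 In this qHTS, HT-1080 cells depleted of IDH1 are exposed for 48 h at 37 °C to compound titrations. Toxicity is scored from CellTiter-Glo luminescence, with DMSO as full viability and medium alone as none.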
# Potency is the fitted concentration of half-maximal effect; tags give direction and shape of the fitted curve.
SMILES,Potency,"activity, negative = toxicity"
COc1cc(C2=NOC(C(=O)NCc3cccs3)C2)cc(OC)c1OC (configuration not stated),active: 7.31 µM,
CC(NC(=O)c1ccco1)C(=O)N1CC=C(c2ccccc2)CC1 (configuration not stated),,inactive: -1.17%
Cc1ccc2cc(CN(Cc3nnnn3C3CCCCC3)CC3CCCO3)c(=O)[nH]c2c1 (configuration not stated),"inconclusive [cytotoxic, single point]",
O=C1C=CC2(O[C@H](c3ccccc3)[C@@H](c3ccccc3)O2)[C@H](Sc2ccccc2O)C1,active: 3.26 µM,
CCC(C)C1C(C#N)=C(N)Oc2n[nH]c(C)c21 (configuration not stated),"inconclusive [cytotoxic, single point]",
CC1(c2ccc(OC(F)F)cc2)NC(=O)N(/N=C/c2c(O)ccc3ccccc23)C1=O (configuration not stated),"inconclusive [cytotoxic, single point]",
CCCCCCC[N+](CC)(CC)CCCCc1ccc(Cl)cc1,active: 6.51 µM,
COc1ccc(Cl)cc1NC(=O)CNc1ccccc1CN(C)C1CCCCC1,active: 16.4 µM,
COC(=O)c1ccc(COc2ccc(/C=C/C(=O)c3ccc(OC)c(CSCC(=O)O)c3)cc2OC)cc1,"inconclusive [cytotoxic, single point]",
CN1CCN(C(=S)NC(=O)c2ccc(Br)cc2)CC1,,inactive: 2%
COc1ccc(C2c3ccc(O)cc3Oc3ncn(CCN4CCOCC4)c(=N)c32)cc1 (configuration not stated),,inactive: -3.86%
COc1ccccc1NS(=O)(=O)c1cccc(NC(=O)c2nn(C)c(=O)c3ccccc23)c1,,inactive: -5.77%
CCCN(CC(=O)Nc1cc(Cl)cc(Cl)c1)CC(=O)Nc1ccc(F)c(F)c1F,"inconclusive [cytotoxic, single point]",
CCOC(=O)c1c(NC(=O)Nc2ccc(C)cc2)sc2c1CCN(C)C2,,inactive: 19.5%
CNCCCC1c2ccccc2C=Cc2ccccc21,active: 23.1 µM,
NC(Cc1ccc(C(F)(F)F)cc1)c1csc(Nc2ccc(C(=O)NCCCO)cn2)n1 (configuration not stated),"inconclusive [cytotoxic, single point]",
Cc1ccc(Cc2c(-c3ccco3)nc3ccc(Cl)cn23)cc1,active: 16.4 µM,
COc1cccc(N2CC(O)Cn3c2nc2c3c(=O)[nH]c(=O)n2C)c1 (configuration not stated),,inactive: -3.83%
CCc1ccc2[nH]c3nc(C)cc(C)c3c(=O)c2c1,,inconclusive: 18.3%
Nc1c(C(=O)O)cnc2c(-c3ccc(Cl)cc3)cnn12,"inconclusive [cytotoxic, full curve]",
O=C1C=CC(=O)c2c(O)c(N3CCN(CCO)CC3)c(Cl)c(O)c21,active: 5.17 µM,
COc1ccc(NC(=O)c2cc([N+](=O)[O-])ccc2N2CCCC2)cc1,,inactive: 2.49%
O=C(CSc1oc(-c2ccc(F)cc2)nc1S(=O)(=O)c1ccccc1)NCC1CCCO1 (configuration not stated),"inconclusive [cytotoxic, single point]",
CCOC(=O)Cc1cc(=O)n(-c2nc3ccccc3s2)[nH]1,,inactive: -5.67%

SMILES,Potency,"activity, negative = toxicity"
COc1cc(C(=O)Nc2ccc3c(c2)N(C(=O)CN2CCN(C)CC2)c2ccccc2CC3)cc(OC)c1OC,"inconclusive [cytotoxic, partial curve, poor fit]",
Cc1ccc(S(=O)(=O)/N=C(/Nc2cccc3ccccc23)c2ccc(F)cc2)cc1,"inconclusive [cytotoxic, partial curve]",
Cc1ccnc(NC(=O)c2ccoc2C)c1,"inconclusive [cytotoxic, single point]",
Cc1cccn2c(=O)c(C=O)c(N3CCN(C)CC3)nc12,,inactive: 18.1%
Cc1cccc(OCc2n(CC(=O)OC3CC(C)CCC3C(C)C)c3ccccc3[n+]2C)c1 (configuration not stated),active: 8.2 µM,
CC(=O)Nc1cccc(NC(=O)CSc2nc(C3CC3)nc3ccccc23)c1,"inconclusive [cytotoxic, partial curve]",
O=C(N/N=C/c1c[nH]c2ccccc12)c1cc(-c2ccccc2)n[nH]1,"inconclusive [cytotoxic, single point]",
CCN1C(=O)c2cccc3c(S(=O)(=O)NCc4ccco4)ccc1c23,"inconclusive [cytotoxic, single point]",
CCOc1ccc2[nH]c3c(NCCN(CC)CC)ncnc3c2c1,"inconclusive [cytotoxic, partial curve, poor fit]",
Cc1nc2ccccc2nc1N/N=C/c1ccc(O)cc1O,"inconclusive [cytotoxic, full curve]",
CC(Oc1ccc(Cl)cc1)C(=O)NNC(=S)NC(=O)c1ccco1 (configuration not stated),"inconclusive [cytotoxic, partial curve]",
C[C@@H]1CCCCO[C@H](CN(C)Cc2ccc3c(c2)OCO3)[C@H](C)CN([C@@H](C)CO)C(=O)c2cc(NC(=O)c3ccccc3)ccc2O1,"inconclusive [cytotoxic, single point]",
COc1ccc(Oc2c(C(F)(F)F)oc3cc(OCC(=O)O)ccc3c2=O)cc1,,inactive: -1.04%
COc1ccc(S(=O)(=O)NCCc2c[nH]c3ccc(C)cc23)cc1,,inactive: 11.1%
CCOC(=O)C1(CCOc2ccccc2)CCN(Cc2ccc(F)c(OC)c2)CC1,"inconclusive [cytotoxic, single point]",
CCOC(=O)c1c(C)[nH]c(C(=O)OCc2ccccc2)c1C,,inactive: -7.14%
O=C(NCc1ccccc1CN1CCCC1)C1CCN(C(=O)c2ccc(Cl)cc2)CC1,,inactive: 2.07%
O=C(O)Cn1cnc2scc(-c3ccccc3)c2c1=O,"inconclusive [rising, partial curve, poor fit]",
Cc1ccc(S(=O)(=O)N2CCOCC2)cc1C(=O)Nc1cc(Cl)ccc1N1CCOCC1,,inactive: 4.82%
O=c1[nH]c2ccc(NCc3ccccc3OCc3ccc(Cl)cc3)cc2[nH]1,"inconclusive [cytotoxic, single point]",
Cc1ncc(CC(=O)n2cc(C(=O)c3cc(F)ccc3O)cn2)s1,"inconclusive [cytotoxic, single point]",
CCCC(=O)C1=C(O)C(C(=O)OC)C(C)(C)CC1=Nc1cccc2ccccc12 (configuration not stated),"inconclusive [cytotoxic, partial curve]",
CCC(Sc1nnnn1-c1ccccc1)C(=O)Nc1nc2ccccc2s1 (configuration not stated),"inconclusive [cytotoxic, single point]",
O=C(NNc1ccc(Cl)cc1)c1cccs1,active: 6.51 µM,

SMILES,Potency,"activity, negative = toxicity"
Cc1ccc(S(=O)(=O)N2CCCN(Cc3nc4ccccc4c(=O)[nH]3)CC2)cc1,,inactive: -6.18%
COc1cccc2cc(C(=O)NCc3ccc(Cl)cc3)c(=O)oc12,,inactive: 0.276%
CN(NS(=O)(=O)c1ccc(F)cc1)c1ncc(C(F)(F)F)cc1Cl,,inactive: 10.3%
COc1ccc(F)cc1-c1cc(C(=O)NCc2ccccc2)[nH]n1,,inactive: 29.6%
O=C(NCCc1ccccc1)Nc1nnc([C@@H]2C[C@H](O)[C@@H](CO)O2)s1,"inconclusive [rising, single point]",
CN(c1ccc([N+](=O)[O-])cc1C(=O)Nc1ccccc1)C1CCCCC1,"inconclusive [cytotoxic, single point]",
CN(Cc1ccccc1)c1nc(N)nc(Cl)c1C=O,active: 18.4 µM,
N#CCC1c2ccccc2CCN1C(=O)Nc1ccc(C(F)(F)F)cc1 (configuration not stated),"inconclusive [cytotoxic, partial curve]",
Cc1nnc(SCC(=O)N/N=C/c2ccc(-c3ccc(C)c(Cl)c3)o2)s1,"inconclusive [cytotoxic, single point]",
N#C/C(=C\c1ccccn1)c1nc2ccccc2s1,,inactive: -27.7%
Cc1sc2nc(SCC(=O)N3CCCCC3)[nH]c(=O)c2c1C,,inactive: -6.32%
N#CC(C#N)=C1C=CC=CN1/C(=C\c1ccco1)C(=O)c1ccccc1,"inconclusive [cytotoxic, full curve]",
O=C(NCSc1ccccc1)c1ccccc1,,inactive: 1.08%
CN(C)CCCNc1nc2cc(-c3ccccc3)sc2c(=O)n1C,"inconclusive [cytotoxic, partial curve]",
CCOC(=O)c1c(C)nc2sc(C(=O)Nc3ccccc3)c(N)c2c1-c1ccc(OC)cc1,"inconclusive [cytotoxic, partial curve]",
O=C1CC(N2CCN(c3ccc(O)cc3)CC2)C(=O)N1Cc1cccs1 (configuration not stated),"inconclusive [cytotoxic, single point]",
Cc1cccc(C2NC(=O)c3ccccc3N2)c1 (configuration not stated),"inconclusive [cytotoxic, single point]",
Cc1cccc2cc(-c3ccccc3)c(-c3ccccc3)c[n+]12,,inconclusive: -39.1% [cytotoxic]
COc1cccc(O)c1CN1CCC(Oc2ccc(C(=O)NCc3ccccn3)cc2)CC1,"inconclusive [cytotoxic, single point]",
CCOc1ccc(NCc2ccccc2OCc2cccc(F)c2)cc1,"inconclusive [cytotoxic, single point]",
COc1ccc(-n2c(COc3ccc(C)cc3)nnc2SCc2ccc(C#N)cc2)cc1,"inconclusive [cytotoxic, single point]",
Cn1c(=O)c2cc(NC(=O)CCc3ccc(O)cc3)ccc2n1Cc1cccc(C(F)(F)F)c1,"inconclusive [cytotoxic, full curve, poor fit]",
COc1cccc(N=c2oc3ccccc3cc2-c2nc3ccccc3[nH]2)c1,"inconclusive [cytotoxic, single point]",
O=C(c1c[nH]c2ccccc12)C(Cl)c1ccccc1 (configuration not stated),"inconclusive [cytotoxic, single point]",
